Reference: the supplement of paper PMC3334620
Whole data set: some 33,000 sequences, median “E-score (-0.5 to 0.5)” near -0.016, cut for the highest 2% near 0.31. Some of the results follow.

Target: Cst6 (UniProt P40535)
Test: PBM E-score (8-mer binding enrichment) (E-score (-0.5 to 0.5)); higher = stronger / more preferred TF binding; most listed sequences are background and not binding sites
Conditions: protein concentration: 200 nM; construct: GST-DNA-binding domain
Method: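 Universal 'all 10-mer' protein binding microarrays (Agilent AMADID 015681) probed with GST-tagged S. cerevisiae TFs (full-length or DBD) made by in vitro transcription/translation (PURExpress), about 100-200 nM. Bound TF was detected with fluorescent anti-GST. Each ungapped 8-mer (which stands for itself and its reverse complement) is scored by the PBM enrichment score (E-score), a modified Wilcoxon-Mann-Whitney statistic from -0.5 to +0.5, computed with the Universal PBM Analysis Suite. Scale: above 0.35 generally sequence-specific binding.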

Sequence	PBM E-score
AAGGCGCC	0.244
AATTGGGT	0.268
GAGAGATC	-0.135
TCGATGCA	-0.0904
AAATCGAC	0.135
AAACGCTC	-0.105
CGTAGCAC	0.059
ATCGCCCA	-0.292
CTGACGTC	0.482
AGACAAGC	0.0557
CTTCGGAC	-0.005
TGATACCA	0.079
GCGGCGAC	0.0991
ACAACCAC	0.133
CCACCGGA	-0.00856
ATCATTGC	0.188
ATGGATTA	-0.0119
ACATGGCT	-0.193
CCTCATAA	0.199
AGTTGGTG	-0.0092
ACTCTGGG	-0.187
AGCGCTCG	-0.227

Sequence	PBM E-score
TCTGACCA	0.126
CCTCGCAC	0.0202
CCCTCGGA	-0.138
CAGGCCGA	-0.198
ACAACGAT	0.0199
CTTCTCAC	0.0255
CGACCCAG	-0.191
AGCCGGCG	-0.0824
ACACGACA	0.103
TCCGTAAA	-0.0237
GTAGAGCA	-0.0326
CGCTGCCA	-0.161
GTCTTTGA	0.0187
CCACGATC	0.178
ACGTTTAT	0.249
AGCAGACG	-0.079
TAGGTACA	-0.137
CAACATCA	0.305
CCTGCGGA	-0.0778
ACCCCCCC	-0.357
ACCCCGGC	-0.247
CTCAAGTA	-0.112

Sequence	PBM E-score
AGGCCAGC	-0.148
GATAACGC	0.0356
CAGATACA	0.181
CGATAACG	-0.00108
ACCAAAAT	0.157
CATGCATC	0.0691
CCCCTGCC	-0.274
AACAGGGT	-0.319
TCACATGA	0.0859
GAATACGA	0.104
GGGGACAA	-0.107
AACTACTG	-0.0481
CACGAGTA	0.161
ATGGATAG	-0.201
AGTTGCGC	-0.0836
ATAGACAA	0.15
GGGGGTAA	-0.032
AAGTTAGT	0.0846
ACAGGGTA	-0.141
GGGGGGGA	-0.404
AAGTAACG	0.0219
GATGAGGA	0.0495

Sequence	PBM E-score
GGATTGAA	0.117
AGGCGTTC	-0.296
ATTCGAGC	0.0412
TATAGACA	0.0313
GTATGAAA	0.148
AATCACCG	0.0977
AATAGGAA	0.12
TGCCGAAA	0.0378
CCGCTATA	-0.0308
AATTCGAT	0.147
GTACTCAA	0.0374
ACGTGGGA	-0.173
AGGCTATC	-0.191
AGAGGTTA	-0.0325
ACAACTCA	0.115
CCAGACGG	-0.208
CGATGCCC	-0.202
ATTGGAGA	-0.00124
CGGTGCGA	-0.165
AATTGGAA	0.12
AGGATGGC	0.0183
ACACTCCG	-0.136

Sequence	PBM E-score
CAGAGTGA	0.0082
AACTCGAT	0.0881
CTCATTGA	-0.0286
AAGACCAC	-0.31
CAGTGTGC	-0.255
ATAAGATA	0.175
AGTATAAG	0.188
CGACAGTC	-0.24
CGAGAGTA	-0.0682
AGCAGCTG	-0.0203
AAACCGTT	-0.0828
GTAGGCGA	-0.0534
GTAGCCAA	-0.16
CCAGAGAG	-0.321
CGCTGGCC	-0.275
ATTGGAAG	-0.00871
GCACAATA	-0.117
GATGCGAA	0.0293
ATGTATCC	0.0466
ACCCTGCC	-0.252
GGCTCGCA	-0.0199
ACAAATCT	0.101
